Test results: PubChem BioAssay AID686978 (National Center for Advancing Translational Sciences (NCATS), 2013)
Where “and” joins values, the source holds several entries; their conditions need not be identical. Identical values can stand only once. In all, about 420,000 compounds went through this assay and about 64,000 (15%) were called active. The inconclusive results got no clear call from the source; some entries with a clear call stand among them for comparison. Calls follow the shape of the dose curve; as a rule, active = well fitted inhibition curve with a large enough effect; inconclusive = small, poorly fitted or top-dose-only effect; inactive = flat fitted curve, though single readings scatter. A potency beside an inconclusive call is a rough fit, not a confirmed value.

Assay: qHTS for Inhibitors of human tyrosyl-DNA phosphodiesterase 1 (TDP1): qHTS in cells in absence of CPT; also: nearly all actives have a fitted effect of over 55% in size
Conditions: DT40 Tdp1-/- hTDP1 cells, no CPT, ATP luminescence, 48 h; activity change, negative = growth inhibition: at 46.2 µM (top of the series) unless noted
Method in brief: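 Growth kinetics read by CellTiter-Glo luminescence after ≥48 hr at 37 °C. Cells: DT40 Tdp1-/- stably carrying human TDP1, 400 per well, compound exposure in the absence of CPT (DMSO vehicle).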
% is scaled to controls: 0 for no effect and ±100 for the full control effect; potency is read from the fitted curve at half-maximal effect; tags tell the direction and shape of the fitted curve.

SMILES	Potency	activity change, negative = growth inhibition
CC(=O)c1c(C)[nH]c(C(=O)Nc2nc(-c3ccccc3)c(C)s2)c1C	inconclusive: 25.9 µM [inhibitor, partial curve]	–
Cc1ccc(CC(=O)Nc2ccc(OC(F)F)c(Cl)c2)cc1C	inconclusive: 18.4 µM [inhibitor, single point]	–
CCOCCCN(Cc1ccco1)S(=O)(=O)c1cc2c(cc1C)NC(=O)CO2	inconclusive: 25.9 µM [inhibitor, single point]	–
COc1ccc(-n2ncc(C(=O)Nc3cccc(C(F)(F)F)c3)c2C2CCN(C(=O)OC(C)(C)C)CC2)cc1	inconclusive: 29.1 µM [inhibitor, single point]	–
Cc1cccc(NC(=S)N2CCCCC2)c1	inconclusive: 16.4 µM [inhibitor, single point]	–
Cc1cc(NC(=O)CSc2nnnn2-c2ccc(C(C)C)cc2)no1	inconclusive: 23.1 µM [inhibitor, partial curve]	–
CC1(C)Cc2cccc(OCC(=O)NCc3ccccc3)c2O1	–	inconclusive: -26.1% [inhibitor]
Oc1ccc(NC(=S)N=Nc2c(O)[nH]c3ccccc23)cc1	inconclusive: 18.4 µM [inhibitor, single point]	–
O=C(NCCc1ccc(Cl)cc1)C1CCN(S(=O)(=O)N2CCCCC2)CC1	inconclusive: 23.1 µM [inhibitor, single point]	–
CC1CCCN(S(=O)(=O)c2ccc(C(=O)Nc3nnc(-c4ccncc4)o3)cc2)C1 (stereo not drawn)	active: 10.3 µM	–
CCOC(=O)CC1(C)Oc2cc(Cl)ccc2N1S(=O)(=O)c1ccc(C)cc1 (stereo not drawn)	inconclusive: 29.1 µM [inhibitor, single point]	–
CN(C(=O)c1ccc(NC(=O)Cc2ccc(NC(=O)C3CCN(S(=O)(=O)c4cccc([N+](=O)[O-])c4)CC3)cc2)cc1)C1CCCC1	inconclusive: 29.1 µM [inhibitor, single point]	–
CC(=O)Nc1ccc(-c2csc(NC(=O)C3CSC4(C)CCC(=O)N34)n2)cc1 (stereo not drawn)	inconclusive: 29.1 µM [inhibitor, single point]	–
CCN(CC)c1ccc(NC(=O)CCc2nnc3ccc(N4CCCC4)nn23)c(C)c1	active: 23.1 µM	–
CC(C)=CC(=O)N1CCC(N2CCC(C(=O)NCC3CCCO3)CC2)CC1 (stereo not drawn)	inactive	–
COc1ccc(N2Cc3cccc(C(=O)Nc4ccc(F)cc4)c3C2=O)cc1	active: 8.2 µM	–
Cc1cccc(N2CCc3c2nc2ccc(Br)cc2c3N)c1	inconclusive: 23.1 µM [inhibitor, partial curve]	–
CCCCc1cc(=O)oc2cc(OS(C)(=O)=O)ccc12	inconclusive: 11.6 µM [inhibitor, partial curve]	–
CN(CCOC(=O)c1ccc2c(c1)OCCO2)Cc1ccccc1	inactive	–
O=C(NCCc1ccc(Cl)cc1)c1ccc(S(=O)(=O)N2CCCC2)cc1	inconclusive: 16.4 µM [inhibitor, partial curve]	–
COCCNC(=O)/C(C#N)=C/c1c(N2CC(C)OC(C)C2)nc2ccccn2c1=O (stereo not drawn)	inactive	–
CCOC(=O)CN(C(=O)Cn1nnc(-c2ccc(OC)cc2)n1)C(C(=O)NC1CCCC1)c1ccc(F)cc1 (stereo not drawn)	inactive	–
OC(CNCc1ccc(Cl)cc1)COc1ccccc1 (stereo not drawn)	inconclusive: 25.9 µM [inhibitor, single point]	–

SMILES	Potency	activity change, negative = growth inhibition
CCOc1ccccc1NC(=O)CSc1nnc2ccc(-c3cccnc3)nn12	inconclusive: 5.17 µM [inhibitor, full curve, poor fit]	–
Cc1ccc(C2=Nc3ccccc3N(CC(=O)NCc3ccccc3Cl)C(=O)C2)cc1C	active: 20.6 µM	–
c1ccc2c(N3CCOCC3)nc(-c3ccncc3)nc2c1	active: 14.6 µM	–
CC(Sc1ccc(S(=O)(=O)N2CCN(C)CC2)cn1)C(=O)NC1CCCC(C)C1C (stereo not drawn)	inconclusive: 23.1 µM [inhibitor, single point]	–
O=C(Nc1ccc(C(=O)N2CCCC2)cc1)C1CCC1	inactive	–
CC(C)C1C(=O)N(Cc2cn(CCC3OCCO3)nn2)CCS(=O)(=O)N1Cc1ccc(-c2ccccc2C(F)(F)F)cc1 (stereo not drawn)	active: 25.9 µM	–
CS/C(Nc1cc(Cl)ccc1Cl)=C(/C#N)C(=O)c1ccco1	active: 16.4 µM	–
C#C[C@]1(OC(C)=O)CCC2C3CCC4=CC(=O)CCC4C3CC[C@]21C (stereo partly drawn)	active: 16.4 µM	–
O=C(NC(=S)Nc1ccc(Cc2ccncc2)cc1)c1ccc(F)cc1	active: 16.4 µM	–
CC[N+](C)(C(=O)O)/C(=C\c1ccccc1)c1ccnc2ccccc12 (stereo not drawn)	inconclusive: 35.5 µM [inhibitor, single point]	–
CCCCOc1ccc(CSC(=N)N)cc1[N+](=O)[O-]	active: 11.6 µM	–
O=C(Nc1c(C(=O)N2CCN(c3ccccc3)CC2)oc2ccccc12)c1ccco1	inconclusive: 23.1 µM [inhibitor, single point]	–
CCCc1ccc(C(C)NC(=S)NCc2ccc(F)cc2)cc1 (stereo not drawn)	inconclusive: 25.9 µM [inhibitor, single point]	–
O=C(Nc1ccc(N2CCOCC2)c(S(=O)(=O)Nc2ccc(Cl)cc2)c1)c1ccc(=O)[nH]n1	inactive	–
COc1cc([N+](=O)[O-])cc(/C=N/NC(=O)C(O)(c2ccccc2)c2ccccc2)c1O	inconclusive: 20.6 µM [inhibitor, single point]	–
Cc1ccc(NC(=O)Cn2ncc3c([nH]c4ccccc43)c2=O)cc1Cl	inactive	–
C=C(Nc1ccc(OCC)cc1)Nc1ccc(OCC)cc1	inconclusive: 13.3 µM [inhibitor, partial curve] and inconclusive: 29.9 µM [inhibitor, single point]	–
CSc1nc(-c2ccccc2)nc(NC(=O)c2ccccc2)c1C(C)=O	inconclusive: 29.1 µM [inhibitor, single point]	–
O=C1c2cccc3cc([N+](=O)[O-])cc(c23)C(=O)N1/N=C/c1ccc(O)cc1O	active: 16.4 µM	–
O=C(Nc1ccc(F)cc1)C1(S(=O)(=O)c2ccc(Cl)cc2)CC1	inactive	–
Cc1ccccc1CN1c2ccccc2-c2nc(SCC(=O)NCc3ccccc3)ncc2S1(=O)=O	inconclusive: 29.1 µM [inhibitor, single point]	–
Cc1ccc(S(=O)(=O)N(C)c2ccc(N)cc2)cc1	inactive	–
CC1CCN(C(=O)CSc2nnc3c(n2)[nH]c2ccccc23)CC1	–	inconclusive: -34.8% [inhibitor]

SMILES	Potency	activity change, negative = growth inhibition
CCc1ccccc1N(C1=NCCCS1)S(=O)(=O)c1ccc(C(C)(C)C)cc1	inconclusive: 29.1 µM [inhibitor, single point]	–
O=C(c1cccc(C(F)(F)F)c1)C1CCCN(C(=O)CN2CCCC2=O)C1 (stereo not drawn)	inconclusive: 32.6 µM [inhibitor, partial curve, poor fit]	–
O=C(CCC1CCCCC1)NNC(=O)c1cnccn1	inconclusive: 29.1 µM [inhibitor, single point]	–
COc1ccc(NC(=S)NC(=NS(=O)(=O)c2ccc(Cl)cc2)c2ccccc2)cc1	inconclusive: 20.6 µM [inhibitor, partial curve]	–
Cc1c(C(=O)NCCc2ccc(Cl)cc2)sc2nc3n(c(=O)c12)CCCC3	active: 18.4 µM	–
COc1ccc(NC(=O)CN(C)CC(=O)NCc2ccc(C)cc2)cc1	inconclusive: 18.4 µM [inhibitor, single point]	–
CCOC(=O)N1CCN(C(=O)c2ccc3c(c2)N(Cc2ccc(F)cc2)CCS3)CC1	active: 9.2 µM	–
COc1cc(C)nc(NC(=O)NC(=O)c2ccc(C(F)(F)F)cc2)n1	inactive	–
Cc1noc(C)c1CSCC(=O)Nc1cc(C(F)(F)F)ccc1N1CCCCC1	active: 16.4 µM	–
COc1ccc(-c2noc3c2-c2nc(C(C)C)sc2CC3)cc1	inconclusive: 0.731 µM [inhibitor, full curve, poor fit]	–
COCCCN(CC(=O)Nc1ccc(N2CCOCC2)cc1)S(=O)(=O)c1ccc(Cl)cc1	inconclusive: 13 µM [inhibitor, partial curve]	–
CCN1C(=O)c2cccc3c(S(=O)(=O)NCC4CCCO4)ccc1c23 (stereo not drawn)	inconclusive: 7.31 µM [inhibitor, partial curve]	–
CCCCCCSc1ccc([C@H]2N[C@@](C)(C(=O)OC)[C@H]3C(=O)N(C)C(=O)[C@@H]23)cc1	inactive	–
COc1ccc(CN(CCNC(=O)CCCCC(=O)NCCN(Cc2ccc(OC)cc2)C(C)C)C(C)C)cc1	inconclusive: 16.4 µM [inhibitor, partial curve]	–
CN(CC(=O)Nc1ccccc1Br)CC(=O)Nc1ccccc1-c1ccccc1	inconclusive: 18.4 µM [inhibitor, single point]	–
CCn1c(SCC(=O)NCC2CCCO2)nnc1-c1ccc(Cl)cc1 (stereo not drawn)	inactive	–
COc1ccccc1CC(Cc1nc2ccccc2[nH]1)c1nc2ccccc2[nH]1 (stereo not drawn)	active: 29.9 µM	–
CCCCCNC(=O)c1ccc2c(=O)n(CCCN3CCCC3=O)c(=S)[nH]c2c1	inconclusive: 18.4 µM [inhibitor, single point]	–
CN(C)c1ccc(C2(c3ccc(N(C)C)cc3)OC(=O)c3cc(N)ccc32)cc1	inconclusive: 18.4 µM [inhibitor, single point]	–
CCOc1cc2c3c(c1)C1(C(=O)N3C(C)(C)C=C2C)C(C#N)=C(N)Oc2cc(O)ccc21 (stereo not drawn)	inconclusive: 23.1 µM [inhibitor, single point]	–
Cc1cccn2c(=O)c(C(=O)NCCc3ccccc3)c(O)nc12	inconclusive: 16.4 µM [inhibitor, single point]	–
NC(=O)CC[C@@H]1NC(=O)[C@@H]2CCCN2C(=O)c2cc([N+](=O)[O-])cc(I)c2NCCC[C@@H](C(N)=O)NC1=O	inactive	–
